Test results as given in publication PMC10385607, “Optimization and Characterization of Novel ALCAM-Targeting Antibody Fragments for Transepithelial Delivery” (Pharmaceutics, 2023).
Where a chain is given by its changes, count along the chain named. One block for each binder: values may come before it.

Legend:
[1] = target: T1, Human ALCAM (28–501)-6xhistidine tag (human, UniProt Q13740); assay: ELISA; CD6 competition ELISA: plate coated with hALCAM (5 µg/mL in PBS); fixed murine CD6-Fc (0.25 µg/mL) with antibody 2000 nM to 0.002 nM in PBS, 2 h RT; bound CD6-Fc detected with HRP-coupled antihuman IgG; conditions: both partners purified
T1 construct: human ALCAM, residues 28-501, all five extracellular immunoglobulin domains; also called hALCAM; source: CHO cells, in-house, purified (Ni-NTA agarose)

[2] = target: T1, Human ALCAM (28–501)-6xhistidine tag; assay: as above; conditions: both partners purified; remark: listed apart in the source
T1 sequence (Q13740 28-501): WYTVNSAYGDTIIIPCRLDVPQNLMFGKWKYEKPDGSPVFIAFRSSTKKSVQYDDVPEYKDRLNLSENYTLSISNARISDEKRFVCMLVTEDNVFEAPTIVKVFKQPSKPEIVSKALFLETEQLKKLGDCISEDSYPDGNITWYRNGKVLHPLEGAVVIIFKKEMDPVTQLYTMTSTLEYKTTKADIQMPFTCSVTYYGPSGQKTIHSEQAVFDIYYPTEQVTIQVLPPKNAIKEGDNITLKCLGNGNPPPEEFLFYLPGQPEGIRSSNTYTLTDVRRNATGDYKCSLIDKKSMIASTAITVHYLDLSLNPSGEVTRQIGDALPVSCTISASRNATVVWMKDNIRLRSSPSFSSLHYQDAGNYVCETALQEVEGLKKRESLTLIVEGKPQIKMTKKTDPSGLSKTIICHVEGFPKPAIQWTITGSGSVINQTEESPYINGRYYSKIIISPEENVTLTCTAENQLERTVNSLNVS

IC50 [1]: 7.33 ± 3.91 nM
B1: IF8-Fc (Fc fusion)
VH: [no letters for about 100 residues]GYVAFDYWGQGTLVTVSS
VL: SSELTQDPAVSVALGQTVRITCQGDSLRSYYASWYQQKPGQAPVLVIYGKNNRPSGIPDRFSGSSSGNTASLTITGAQAEDEADYYCNSSPPFSAEVVFGGGTKLTVL
notes: CDR1 QGDSLRSYYAS, CDR2 GKNNRPS, CDR3 NSSPPFSAEVV; scFv IF8 with the Fc fragment of murine IgG1 appended; Labelled with AF647 for flow cytometry; also called bivalent scFv-Fc fusion protein of IF8; parental antibody IF8-Fc

IC50 [1]: 13.4 ± 5.47 nM
B2: db V2D7 (other)
VH: [no letters for about 100 residues]GYVAFDYWGQGTLVTVSS
VL: SSVLTQPPSVSVAPGQTARITCQGDSLRSGYASWYQQKPGQAPVLVVYGKNNRPSGIPERFSGSSSGNTATLTISRVEAGDEADYYCNSSPPFSAEVVFGGGTKLTVL
notes: as the VH of m9 (V2D7): VH of OPT with CDR1 STGAMS; linker; Bivalent two-chain diabody (24 kDa chain, 48 kDa native); also called diabody V2D7; V2D7 db; source: CHO cells, transient gene expression, purified (Protein A)

binding result [2]: binds
B3: db V200G1 (other)
VH: [no letters for about 100 residues]GYVAFDYWGQGTLVTVSS
VL: B2 VL with N51T, N52G
notes: as the VH of m10 (V200G1): VH of OPT with CDR1 STGAMS; linker; Bivalent two-chain diabody; also called V200G1 in db format; source: CHO cells, transient gene expression, purified (Protein A)
